# Experimental data taken from PubChem BioAssay AID2546 (National Center for Advancing Translational Sciences (NCATS), 2010).
# Out of some 310,000 compounds screened, about 11,000 (3.5%) were called active. The inconclusive results got no clear call from the source; some entries with a clear call stand among them for comparison. The call rests on the fitted dose curve; in most records, active means well fitted inhibition curve with a large enough effect; inconclusive means small, poorly fitted or top-dose-only effect, or effect the other way; inactive means flat fitted curve, though single readings scatter. Potencies of inconclusive entries are left out as doubtful fits.
# Assay: VP16 counterscreen qHTS for inhibitors of ROR gamma transcriptional activity;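 further: Gal4-VP16 expression switched on by copper sulfate through the metallothionein promoter; nearly all actives have a fitted effect of over 50% in size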
# Conditions: Drosophila S2 Gal4-VP16 UAS-luciferase, luminescence, 20 h; activity, negative = inhibition: at 53.6 µM (top of the series)
# On the % scale 0 is the no-effect control and ±100 the full control effect; potency means the concentration at half of the fitted maximal effect; tags describe the fitted curve by direction and shape.
Compound,Potency,"activity, negative = inhibition"
CC(=O)c1ccc(N2CCN(c3ncc(C(F)(F)F)cc3Cl)CC2)cc1,"inconclusive [inhibitor, single point]",
NC(=O)c1cc(N2C(=O)C=CC2=O)ccc1Cl,active: 7.08 µM,
Cc1c(C(=O)N2CCN(c3ccccn3)CC2)cccc1[N+](=O)[O-],inactive,
Cc1cc(N2CCN(C)CC2)ccc1NC(=O)c1cccc(S(=O)(=O)N2CCc3ccccc3C2)c1,"inconclusive [inhibitor, single point]",
C=CCn1c2ccccc2c2nnc(SCCN3CCCCC3)nc21,inactive,
COc1ccc(NC(=S)N(CCCN2CCC(C)CC2)Cc2cccs2)cc1Cl,,inactive: -2.32% [at 10 µM]
COc1cccc(CN2CCNC(=O)C2CC(=O)N(C)CCC2CCOCC2)c1 (configuration not stated),inactive,
NC(=O)CN1CCN(S(=O)(=O)c2ccc(Br)cc2)CC1,inactive,
CCC(=O)Nc1nnc(SCC(=O)c2ccc3c(c2)Cc2ccccc2-3)s1,inactive,
Cc1ccccc1C(=O)Nc1cc(-c2cc(C(C)(C)C)oc2C)nn1C,inactive,
CCOc1ccc(NC(=O)CC2C(=O)N(C)C(=S)N2Cc2ccco2)cc1 (configuration not stated),"inconclusive [inhibitor, single point]",
CC(C)(C)c1ccc(OCCNC(=S)NC(=O)c2cccnc2)cc1,"inconclusive [inhibitor, single point]",
CCOC(=O)C1(Cc2ccccc2Cl)CCN(S(=O)(=O)N(C)C)CC1,"inconclusive [activator, full curve, poor fit]",
c1ccc2c(-c3[nH]ncc3CNCCCn3ncc4ccccc43)cccc2c1,"inconclusive [inhibitor, single point]",
CC(C)n1c(N2CCN(C(=O)Nc3ccc(F)cc3F)CC2)nc2ccccc21,inactive,
CC(C)(C)NC(=O)C12CC3CC(CC(Cl)(C3)C1)C2,inactive,
Cc1ccc(-c2c[n+](Cc3ccc(Cl)c(Cl)c3)c3n2CCC3)cc1,"inconclusive [inhibitor, single point]",
O=C(Nc1nc2ccccc2[nH]1)NC1CCCCC1,"inconclusive [inhibitor, partial curve, poor fit]",
O=C(CNC(=O)c1ccccc1)OCC(=O)c1cccs1,inactive,
Cc1ccnc(N/N=C/c2ccccc2)n1,"inconclusive [inhibitor, single point]",
CCN1CCN(/C=N/c2nc3c(s2)CCCC3)CC1,active: 7.08 µM,

Compound,Potency,"activity, negative = inhibition"
Cc1cccc(CSc2nc3c(cc2C#N)CCC3)c1,inactive,
COc1ccccc1/C=N/NC(=S)NCc1ccco1,active: 11.2 µM,
CN(C)S(=O)(=O)c1ccc(S(=O)(=O)N(CC(=O)Nc2ccccc2)Cc2ccco2)cc1,"inconclusive [inhibitor, single point]",
CCOC(=O)/C(N)=C/c1ncc(C(F)(F)F)cc1Cl,"inconclusive [inhibitor, single point]",
CNC(=S)NNC(=O)CSCc1c(Cl)cccc1Cl,active: 20 µM,
CCC(=O)N1CCN(c2ccc(NC(=O)COc3ccc(C)cc3C)cc2)CC1,inactive,
CCC(C(=O)Nc1ncc(C)s1)c1ccccc1 (configuration not stated),"inconclusive [inhibitor, partial curve]",
Cc1cccc(-n2c3nc(=O)[nH]c(=O)c-3cc3cc([N+](=O)[O-])ccc32)c1,"inconclusive [inhibitor, single point]",
COc1ccc2nc(NC(=O)c3sc4nc(C)cc(C)c4c3N)sc2c1,"inconclusive [inhibitor, full curve]",
COc1ccc(NS(=O)(=O)c2ccc(SC)cc2)cc1,"inconclusive [inhibitor, single point]",
Nc1sc(-c2ccccc2)n[n+]1Cc1cccc2cccnc12,"inconclusive [inhibitor, single point]",
CCNc1nc(OCC)nc(N2CCC(Cc3ccccc3)CC2)n1,active: 3.98 µM,
O=C(NNC1=C(C(=O)C(F)(F)F)CCC1)c1ccc(Cl)cc1,"inconclusive [inhibitor, single point]",
Cc1ccc(S(=O)(=O)N2CCCC2C(=O)NCc2ccncc2)cc1 (configuration not stated),"inconclusive [inhibitor, single point]",
COc1cc(OC)cc(C(=O)NC(=S)N(Cc2ccccc2)C(C)C)c1,active: 0.891 µM,
CCc1ccc(-n2c(Cc3ccccc3)n[nH]c2=S)cc1,"inconclusive [inhibitor, partial curve]",
CC(C)(C)c1ccc(-c2nc(-c3ccncc3)no2)cc1,"inconclusive [inhibitor, single point]",
CN1CCN(c2nc(-c3ccc(N(C)C)cc3)nc3ccccc23)CC1,"inconclusive [inhibitor, single point]",
Cc1ccc(C(=O)Nc2ccc(Cc3ccncc3)cc2)cc1[N+](=O)[O-],inactive,
CC(=O)C1=C(C)NC(SCC(N)=O)=C(C#N)C1c1cccnc1 (configuration not stated),inactive,
C=CCSc1ccccc1C(=O)Nc1ncn[nH]1,"inconclusive [inhibitor, single point]",

Compound,Potency,"activity, negative = inhibition"
CCC(C)(C)NC(=O)c1cc(S(=O)(=O)N2CCc3ccccc32)cn1C,"inconclusive [inhibitor, single point]",
Cc1cc(N2CCN(c3cccc(C(F)(F)F)c3)CC2)n2ncnc2n1,inactive,
c1ccc(-c2nc(N3CCOCC3)c3ccccc3n2)nc1,active: 5.62 µM,
CCCCn1c(N)c(N(Cc2ccccc2OC)C(=O)C(C)C)c(=O)[nH]c1=O,inactive,
CN(C(=O)c1ccc2ccccc2c1)c1ccccn1,inactive,
CSc1ncccc1C(=O)OCC(=O)C(C)(C)C,inactive,
O=C(COc1cccc2cccnc12)Nc1nccs1,active: 17.8 µM,
COc1cccc(NC(=O)CSc2nnc(-c3cc(C)n(-c4ccccc4)c3C)o2)c1,active: 11.2 µM,
O=S(=O)(c1cccc(Cn2nnc(-c3ccc(F)cc3)n2)c1)N1CCOCC1,active: 11.2 µM,
COc1ccc(C(c2c(C)n(C)n(-c3ccccc3)c2=O)c2c(C)n(C)n(-c3ccccc3)c2=O)cc1,inactive,
O=C(Nc1ccccc1)c1ccc2snnc2c1,"inconclusive [activator, single point]",
Brc1ccc2nc(N3CCN(c4ccccc4)CC3)sc2c1,inactive,
Nc1cc2sc(-c3ccc(C(=O)O)cc3)nc2cc1Cl,active: 11.2 µM,
CNc1cc([N+](=O)[O-])ccc1N/C=C/C(=O)c1cccs1,"inconclusive [inhibitor, single point]",
CC1CN/C(=C\C(=O)c2ccccc2)C(=O)N1 (configuration not stated),"inconclusive [inhibitor, single point]",
Cc1cc(C(=O)CSc2n[nH]c(N)n2)c(C)n1-c1cccc(F)c1,inactive,
O=S(=O)(NCc1ccc(C(F)(F)F)cc1)c1ccc(-n2cnnn2)cc1,inactive,
CN(Cc1cc(=O)n2ccsc2n1)c1ccccc1,"inconclusive [activator, single point]",
Fc1ccc(CNC(=S)Nc2cccc(Cl)c2)cc1,active: 11.2 µM,
CC(=O)c1ccc(N2CCN(C(=O)c3nn(C)c4c3CS(=O)(=O)c3ccccc3-4)CC2)cc1,inactive,
CCn1c(-c2csc(C(C)C)c2)n[nH]c1=S,active: 12.6 µM,

Compound,Potency,"activity, negative = inhibition"
CNC(=S)Nc1cc2oc3ccccc3c2cc1OC,active: 12.6 µM,
Cc1cc(C)c(OCCCn2ccnc2)c(C)c1,"inconclusive [inhibitor, single point]",
CN(C)C(CNC(=O)c1cccc(C(F)(F)F)c1)c1ccco1 (configuration not stated),inactive,
CCOc1ccc(-c2[nH]ncc2-c2ccccc2)c(O)c1,"inconclusive [inhibitor, single point]",
CCN(CC)C(=O)COc1ccc(-c2nnc(N3CCCCC3)c3ccccc23)cc1,"inconclusive [inhibitor, single point]",
Cc1onc(-c2c(F)cccc2Cl)c1C(=O)Nc1nc2ccccc2[nH]1,"inconclusive [inhibitor, single point]",
N#Cc1ccc(Oc2ccc(-c3nc4ccccc4nc3-c3ccccc3)cc2)cc1C#N,inactive,
CCCNc1nc(C#N)nc(Nc2ccccc2)n1,inactive,
COc1ccccc1OCc1ccc(C(=O)N/N=C/c2ccco2)cc1,"inconclusive [inhibitor, single point]",
CCn1cc([N+](=O)[O-])c(C(=O)N2CCCC2)n1,inactive,
CCc1ccc(C(=O)NNc2ccc(Cl)cc2)cc1,inactive,
S=C(NCc1ccccn1)Nc1ccccc1Cl,"inconclusive [inhibitor, single point]",
COc1ccccc1/C=C/C=N/NC(=O)c1ccc(=O)n(C)c1,"inconclusive [inhibitor, single point]",
CC(C)CC(NC(=O)C(NC(=O)C(Cc1ccc(OCc2ccccc2)cc1)NC(=O)OC(C)(C)C)C(C)C)C(N)=O (configuration not stated),active: 12.6 µM,
O=C(OCC(=O)c1c[nH]c2ccccc12)c1cc2ccccc2cc1O,inactive,
COC(=O)C1=C(C)N(C(C)c2ccccc2)C(=O)/C1=C\c1ccco1 (configuration not stated),"inconclusive [activator, single point]",
COCCNC(=O)C(C)N1c2cccc3cccc(c23)S1(=O)=O (configuration not stated),inactive,
S=c1[nH]nc(-c2ccc(Br)cc2)n1Cc1ccccc1,active: 5.62 µM,
O=C(Cc1c[nH]c2ccccc12)N/N=C/c1cccc(F)c1,inactive,
